Measured values reported in the supplement of paper PMC9446081.
The whole screen tested about 39,000 compounds, of which about 220 (0.56%) showed activity. The list shows a part of the results.

Test system: Escherichia coli K-12 BW25113
Assay: relative growth (OD600 normalised to plate interquartile mean) (fraction); higher = less growth inhibition, active = 0.2 or less
Conditions: 50 µM; LB; incubation time: overnight (16-24 h)
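Note: static incubation at 37 °C against the wild-type strain, values averaged over two biological replicates.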

SMILES | relative growth
C[C@H](CO)N1C[C@H](C)[C@@H](CN(C)S(=O)(=O)c2cn(C)cn2)Oc2ccc(NC(=O)Cn3cnnn3)cc2C1=O | inactive: 1
COc1c(N2CCNC(C)C2)c(F)cc2c(=O)c(C(=O)O)cn(C3CC3)c12 (centres undefined) | active: 0.0431
CN(C)C(=O)CN1CCN(C)C(=O)[C@]12CCN(c1ncc(F)cn1)C2 | inactive: 1
C[C@@H]1CCCCO[C@H](CN(C)S(C)(=O)=O)[C@@H](C)CN([C@H](C)CO)C(=O)c2cc(NS(C)(=O)=O)ccc2O1 | inactive: 1
CC(CCC(=O)O)C1CCC2C3CCC4CC(O)CCC4(C)C3CCC12C (centres undefined) | inactive: 0.822
C[C@H]1CN([C@@H](C)CO)C(=O)c2cc(C#CCc3ccccc3)cnc2O[C@H]1CN(C)C(=O)Cc1cccnc1 | inactive: 0.994
COCCOC(=O)N1C(=O)[C@@]2(c3cc(C#CC4=CCCCC4)ccc31)[C@H](c1ccccc1OCCO)N1[C@H](c3ccccc3)[C@H](c3ccccc3)OC(=O)[C@H]1[C@@H]2C(=O)N1CCc2cc(OC)c(OC)cc2C1 | inactive: 1.07
C[C@@H]1CN([C@H](C)CO)C(=O)c2cccc(NC(=O)Nc3ccc(C(F)(F)F)cc3)c2O[C@H]1CN(C)Cc1ccccc1 | inactive: 0.89
C[C@H]1CCCCO[C@H](CN(C)Cc2ccncc2)[C@@H](C)CN([C@@H](C)CO)C(=O)c2cc(NC(=O)NC3CCCCC3)ccc2O1 | inactive: 0.996
COc1ccc(NC(=O)Nc2ccc3c(c2)C(=O)N([C@H](C)CO)C[C@@H](C)[C@@H](CN(C)Cc2ccccc2)OCCCC[C@@H](C)O3)cc1 | inactive: 0.998
COCC(=O)N(C)C[C@@H]1Oc2cc(C#CC(C)(C)O)ccc2S(=O)(=O)N([C@H](C)CO)C[C@@H]1C | inactive: 1.02
C[C@H]1CN([C@@H](C)CO)C(=O)c2cc(-c3ccc(C#N)cc3)cnc2O[C@H]1CN(C)C(=O)Nc1ccc(C(F)(F)F)cc1 | inactive: 1.01
C[C@H](CO)N1C[C@H](C)[C@@H](CN(C)C(=O)Cc2ccccn2)Oc2ncc(-c3ccc(F)cc3)cc2C1=O | inactive: 1.03
O=C(O)c1ccc(S(=O)(=O)N(Cc2ccc(OC(F)(F)F)cc2)c2ncc(C(F)(F)F)cc2Cl)cc1 | inactive: 0.846
O=C(NCCO)c1cc2ccccc2oc1=O | inactive: 1.02
C[C@@H]1CCCCO[C@@H](CN(C)C(=O)Nc2ccc(F)cc2)[C@H](C)CN([C@H](C)CO)C(=O)c2cc(NS(=O)(=O)c3ccc(Cl)cc3)ccc2O1 | inactive: 1.03
Cc1noc(C)c1NC(=O)N(C)C[C@H]1Oc2ccc(NS(=O)(=O)c3ccccc3)cc2C(=O)N([C@H](C)CO)C[C@H]1C | inactive: 0.984
CC(C)C#Cc1ccc2c(c1)O[C@H](CN(C)C(=O)c1cnccn1)[C@H](C)CN([C@@H](C)CO)S2(=O)=O | inactive: 0.986
C[C@H](CO)N1C[C@H](C)[C@H](CN(C)S(=O)(=O)c2ccc(C(F)(F)F)cc2)OCc2ccccc2-c2ccccc2C1=O | inactive: 1.01
C[C@@H]1CCCCO[C@@H](CN(C)C(=O)c2ccncc2)[C@@H](C)CN([C@H](C)CO)C(=O)c2cc(NC(=O)CCCCCC(=O)Nc3ccccc3N)ccc2O1 | inactive: 1.02

SMILES | relative growth
CN(C)CC#Cc1cncc(C(=O)NN)c1 | inactive: 1.03
Cc1ccc(S(=O)(=O)Nc2ccc3c(c2)CC(=O)N([C@H](C)CO)C[C@@H](C)[C@H](CN(C)CC2CC2)O3)cc1 | inactive: 0.98
C[C@H](CO)N1C[C@H](C)[C@H](CN(C)Cc2ccccc2)Oc2ccc(NS(=O)(=O)c3cn(C)cn3)cc2CC1=O | inactive: 1.01
CO[C@H]1CN(C)C(=O)c2cc(NC(=O)Nc3ccccc3F)ccc2OC[C@@H](C)N(Cc2ccccc2C(=O)O)C[C@H]1C | inactive: 0.99
CON=C(C(=O)N[C@@H]1C(=O)N2C(C(=O)O)=C(CSc3nc(=O)c(O)nn3C)CS[C@H]12)c1csc(N)n1 | active: 0.0335
Cc1ccc(S(=O)(=O)N(C)C[C@H]2OCCCC[C@H](C)Oc3ccc(NC(=O)Nc4ccc5c(c4)OCO5)cc3C(=O)N([C@H](C)CO)C[C@@H]2C)cc1 | inactive: 1.07
CC(C)NC(=O)Nc1ccc2c(c1)C(=O)N([C@@H](C)CO)C[C@H](C)[C@@H](CN(C)S(=O)(=O)c1ccccc1)O2 | inactive: 0.98
C[C@H](CO)N1C[C@H](C)[C@H](CN(C)C(=O)Nc2ccc(C(F)(F)F)cc2)OCCCC[C@H](C)Oc2ccc(NS(C)(=O)=O)cc2C1=O | inactive: 0.952
COc1ccccc1S(=O)(=O)N[C@@H]1CC[C@@H](CCNC(=O)C2CC2)O[C@@H]1CO | inactive: 1.01
Cc1ccc(S(=O)(=O)N(C)C[C@H]2Oc3ccc(NC(=O)CCN4CCOCC4)cc3CC(=O)N([C@H](C)CO)C[C@@H]2C)cc1 | inactive: 1.01
Cc1noc(C)c1NC(=O)N(C)C[C@@H]1Oc2ccc(NS(=O)(=O)c3c(C)noc3C)cc2CC(=O)N([C@@H](C)CO)C[C@@H]1C | inactive: 1.04
O=C(CCCCCCC(=O)NO)NO | inactive: 0.961
Cc1cc([N+](=O)[O-])nn1CC(=O)NC(C)C | inactive: 1
Cc1ccc(S(=O)(=O)N[C@@H](Cc2ccccc2)C(=O)NCCn2cc(-c3ccc(C(=O)NO)s3)nn2)cc1 | inactive: 1.01
COc1ccc(NC(=O)Nc2ccc3c(c2)C(=O)N([C@@H](C)CO)C[C@H](C)[C@@H](CN(C)S(=O)(=O)c2ccccc2)OCCCC[C@@H](C)O3)cc1 | inactive: 1.07
C[C@@H]1CCCCO[C@@H](CN(C)S(=O)(=O)c2ccccc2)[C@@H](C)CN([C@@H](C)CO)C(=O)c2cc(NC(=O)Nc3ccccc3)ccc2O1 | inactive: 1.04
O=C1c2c(O)cc(O[C@@H]3O[C@H](CO)[C@@H](O)[C@H](O)[C@@H]3O)cc2O[C@@H](c2ccc(O)cc2)[C@@H]1O | inactive: 1.05
C[C@H]1CCCCO[C@@H](CN(C)C(=O)Nc2ccccc2)[C@@H](C)CN([C@@H](C)CO)C(=O)c2cc(NS(=O)(=O)c3ccc(Cl)cc3)ccc2O1 | inactive: 1.01
C[C@@H]1CCCCO[C@@H](CN(C)Cc2ccc(Cl)c(Cl)c2)[C@@H](C)CN([C@@H](C)CO)C(=O)c2cc(NC(=O)CCC(F)(F)F)ccc2O1 | inactive: 0.799
C[C@H](CO)N1C[C@H](C)[C@@H](CN(C)CC2CCCCC2)Oc2ccc(NC(=O)Cn3cnnn3)cc2CC1=O | inactive: 0.944

SMILES | relative growth
COc1ccc(S(=O)(=O)Nc2ccc3c(c2)C(=O)N([C@@H](C)CO)C[C@@H](C)[C@@H](CN(C)Cc2ccc(Cl)c(Cl)c2)OCCCC[C@@H](C)O3)cc1 | inactive: 1.02
Cc1noc(C)c1S(=O)(=O)Nc1ccc2c(c1)C(=O)N([C@@H](C)CO)C[C@H](C)[C@@H](CN(C)C(=O)Nc1cccc3ccccc13)OCCCC[C@H](C)O2 | inactive: 1.02
CCCn1cnnc1CNC | inactive: 0.935
C[C@@H]1CCCCO[C@@H](CN(C)S(=O)(=O)c2ccccc2)[C@@H](C)CN([C@H](C)CO)C(=O)c2cc(NC(=O)Nc3cccc4ccccc34)ccc2O1 | inactive: 1.02
CC(C)(C)OC(=O)C[C@@H]1CC=CC[C@H](CC(=O)N[C@@H](CO)Cc2ccccc2)C(=O)N2CCC[C@@H]2COC1=O | inactive: 1.03
O=C(NCc1ccco1)c1nc2ncccn2n1 | inactive: 1.01
Cc1ccc(S(=O)(=O)N(C)C[C@H]2OCCCC[C@H](C)Oc3ccc(NS(C)(=O)=O)cc3C(=O)N([C@H](C)CO)C[C@@H]2C)cc1 | inactive: 1.03
Cn1cnc(S(=O)(=O)N2C[C@H](O)COC[C@H]3O[C@@H](CC(=O)NC4Cc5ccccc5C4)CC[C@@H]32)c1 | inactive: 1
CN(C)c1ccc(O)c2c1C[C@H]1C[C@H]3[C@H](N(C)C)C(=O)[C@@H](C(N)=O)C(=O)[C@@]3(O)C(=O)[C@H]1C2=O | active: 0.0587
CCS(=O)(=O)NC[C@@]12COC[C@H]1CN(c1cc(OC)ncn1)C2 | inactive: 0.976
C[C@H](CO)N1C[C@H](C)[C@@H](CN(C)S(=O)(=O)c2ccc(F)cc2)Oc2ccc(NC(=O)Cn3cnnn3)cc2C1=O | inactive: 0.987
CC(C)(C)OC(=O)CC[C@@]12N=C(c3ccc(OCCCO)cc3)O[C@@H]1c1ccccc1CN(C(=O)c1ccccc1)C2=O | inactive: 1.01
C[C@H](CO)N1C[C@H](C)[C@@H](CN(C)CC2CCCCC2)Oc2c(NC(=O)c3ccc(-c4nccs4)cc3)cccc2C1=O | inactive: 0.969
C[C@@H]1CN([C@H](C)CO)C(=O)c2cccc(NS(=O)(=O)c3cn(C)cn3)c2O[C@H]1CN(C)C(=O)NC1CCCCC1 | inactive: 0.988
COC(=O)NC(C(=O)NC(Cc1ccccc1)C(O)CN(Cc1ccc(-c2ccccn2)cc1)NC(=O)C(NC(=O)OC)C(C)(C)C)C(C)(C)C.O=S(=O)(O)O (centres undefined) | inactive: 0.916
COc1ccc(NC(=O)Nc2ccc3c(c2)C(=O)N([C@@H](C)CO)C[C@@H](C)[C@@H](CN(C)Cc2ccc(Cl)c(Cl)c2)OCCCC[C@@H](C)O3)cc1 | inactive: 1.02
CO[C@@]1(NC(=O)CSC[C@@H](N)C(=O)O)C(=O)N2C(C(=O)O)=C(CSc3nnnn3C)CS[C@@H]21 | inactive: 1
Cc1ccc(OCc2ccc(Cl)cc2)c(C(C)(C)C)c1 | inactive: 1.04
C[C@@H]1CN([C@@H](C)CO)C(=O)c2cccc(NS(=O)(=O)c3ccc(Cl)cc3)c2O[C@@H]1CN(C)Cc1ccc(C(=O)Nc2ccccc2N)cc1 | inactive: 0.986
